Experimental data as given in PubChem BioAssay AID485344 (National Center for Advancing Translational Sciences (NCATS), 2010).
Where “and” joins values, the source holds several entries; their conditions need not be identical. Equal entries are not always repeated. The whole screen tested about 340,000 compounds, of which about 6,900 (2%) were called active. No stated cut-off is given here; in the data, active means inhibition above about 30%; inactive means below that, where a call was filed. The entries are a selection whose mix differs from that of the whole data set. The source gives no active or inactive call for entries shown without one.

biological target: D(2) dopamine receptor (Homo sapiens) (UniProt P14416); test: HTS Assay for Allosteric Antagonists of the Human D2 Dopamine Receptor: Primary Screen for Antagonists; settings: HEK293 TREx D2 cells, calcium flux, dopamine EC80; at 10 µM; stronger effect = higher value; further: 0% is about no effect
UniProt P14416, sequence (P14416 whole entry, looked up): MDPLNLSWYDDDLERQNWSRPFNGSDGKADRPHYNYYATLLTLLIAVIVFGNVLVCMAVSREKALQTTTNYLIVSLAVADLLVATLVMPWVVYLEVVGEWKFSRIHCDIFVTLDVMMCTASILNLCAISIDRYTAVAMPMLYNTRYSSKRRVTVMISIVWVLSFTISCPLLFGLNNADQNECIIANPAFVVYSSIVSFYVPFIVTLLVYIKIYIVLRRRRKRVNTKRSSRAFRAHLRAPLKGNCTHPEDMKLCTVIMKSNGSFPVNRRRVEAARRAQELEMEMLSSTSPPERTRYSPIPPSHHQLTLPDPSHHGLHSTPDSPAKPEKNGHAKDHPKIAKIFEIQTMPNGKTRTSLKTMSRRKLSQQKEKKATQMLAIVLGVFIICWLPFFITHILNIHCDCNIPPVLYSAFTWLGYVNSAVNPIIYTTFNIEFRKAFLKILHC
How it was run: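 Compounds are added to dye-loaded, induced HEK293 T-REx cells coupled to calcium release via D2; after a 3 min kinetic read an EC80 dopamine stimulus is given and fluorescence is recorded for 3 more min.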

Row | Compound | inhibition
1 | Cc1ccc(CCNC(=O)c2ccc3c(c2)nc2n3CCC(C)C2)cc1 (configuration not stated) | 1.22%
2 | O=C(C1CCN(c2ncnc3c2nc2n3CCCCC2)CC1)N1CCN(c2cccc(Cl)c2)CC1 | 4.67%
3 | COc1ccc(OC)c(CNC(=O)Cc2ccc(NC(=O)N3CCSc4ncccc43)cc2)c1 | -8.52%
4 | CN1CCN(c2ccccc2NC(=O)COc2ccc(Cl)cc2)CC1 | active: 30.3%
5 | Cc1ccc(Cn2c(CNS(=O)(=O)c3ccc(F)c(Cl)c3)nc3cccnc32)cc1 | -19.1%
6 | C=CCNCCOc1ccccc1-c1ccccc1 | active: 86.9%
7 | COc1ccc(-n2ncc(C(=O)NCCc3ccsc3)c2C2CCN(C(=O)OC(C)(C)C)CC2)cc1 | -6.84%
8 | Cc1noc(-c2ccc(N3CCCCC3)c([N+](=O)[O-])c2)n1 | -11.9%
9 | Cc1cc(NC(=O)c2cccc(Cl)c2)ccc1-c1cc2ccccc2oc1=O | -1.66%
10 | C=CCN1C(=O)CN=C1Nc1ccc(F)cc1 | active: 54.3%
11 | COc1ccccc1C1Nc2ccccc2-n2c(-c3ccccc3)c3c(=O)n(C)c(=O)n(C)c3c21 (configuration not stated) | 7%
12 | Cc1ccccc1CCNC(=O)c1ccc2c(c1)nc1n2CCC(C)C1 (configuration not stated) | -0.0336%
13 | CC(=O)Nc1ccc2nc3c(=O)[nH]c(=O)[nH]c3nc2c1 | 20.1%
14 | Cc1ccc(NC(=O)CSc2ccc(-c3cccs3)nn2)cc1Cl | 21.6%
15 | COCC(=O)NCc1nc2cccnc2n1Cc1ccc(F)cc1 | -1.79%
16 | COc1ccc(Nc2cc(C(=O)NCCCN3CCN(c4ccc(OC)cc4)CC3)c3ccccc3n2)cc1 | 6.57%
17 | Cc1ccc(NC(=S)NC2CC3CCCC(C2)N3Cc2cccs2)cc1 (configuration not stated) | active: 71.9%
18 | O=C(CCn1cnnn1)Nc1ccc(F)cc1 | 18.1% and active: 31.9%
19 | Cc1ccc(S(=O)(=O)N(C)C)cc1NC(=S)NC(C)CCC(C)C (configuration not stated) | active: 77.4%
20 | COc1cccc(S(=O)(=O)NCc2ccc(C(=O)N3CCN(c4ccccc4)CC3)cc2)c1 | active: 56.4%
21 | Cc1oc(C)c2c(=O)cc(-c3ccc4c(c3)OCO4)cc(OC(=O)c3cccc(Br)c3)c12 | -2.28%

Row | Compound | inhibition
22 | O=C(NCc1ccc(Cl)cc1)C(=O)NCC(c1cccs1)S(=O)(=O)c1cccs1 (configuration not stated) | 10.5%
23 | CCOC(=O)c1ccccc1NC(=O)Cn1c(=O)n(-c2cccc(C)c2)c(=O)c2c1c1cc(C)ccc1n2C | 0.104%
24 | COc1ccc2c(C)cc(SCC(=O)Nc3nsc(-c4ccccc4C)n3)nc2c1 | 6.1%
25 | COc1cccc(N2CCN(S(=O)(=O)c3ccc(-n4cnnn4)cc3)CC2)c1 | -16.9%
26 | CCOc1ccc(Cn2c(CNS(=O)(=O)c3ccc(Cl)s3)nc3cccnc32)cc1 | 14.1%
27 | COc1cc(C2C(C(=O)Nc3ccccc3C)=C(C)Nc3ncnn32)ccc1OCC(N)=O (configuration not stated) | 9.46%
28 | O=C(NCC(c1ccc2c(c1)OCO2)N1CCOCC1)c1cccc(Cl)c1 (configuration not stated) | -4.82%
29 | O=C(Cn1c(=O)nc(-c2ccccc2)c2ccccc21)NCc1ccc(Cl)cc1 | 8.06%
30 | CCc1ccc(NC(=O)CCn2nc(C)c(S(=O)(=O)N3CCCCC3)c2C)cc1 | 1.51%
31 | c1ccc(-c2ncnc3nc4n(c23)CCC4)cc1 | active: 33.7%
32 | Cc1cc(C)cc(NC(=O)C(=O)NCC(c2cccnc2)N2CCc3ccccc3C2)c1 (configuration not stated) | 21.7%
33 | CC(NCC(O)COc1ccccc1)C1COc2ccccc2O1 (configuration not stated) | active: 64.1%
34 | CCCCNC(=O)C1CCC(Cn2c(=O)c3sccc3n(CC(=O)N3CCCC3)c2=O)CC1 (configuration not stated) | -6.75%
35 | O=C(Nc1cc(C(F)(F)F)ccc1Cl)c1nc2ccccc2nc1N1CCCCC1 | -5.9%
36 | COC(=O)c1cccnc1-n1c(=O)c2cccnc2n(CC(=O)Nc2ccccc2F)c1=O | -2.71%
37 | O=C(CSc1nncn2c1cc1sccc12)Nc1ccc(Br)cc1F | 9.6%
38 | CCOC(=O)c1c(C)oc2nc(C)nc(NCc3ccc(OC)cc3OC)c12 | -23.3%
39 | CCc1ccccc1NC(=O)c1sc2nc3c(cc2c1N)CN(Cc1ccccc1)CC3 | -1.24%
40 | O=C(Nc1nc2n(n1)C(c1ccc(F)cc1)C=C(c1ccccc1)N2)c1ccc(Cl)cc1 (configuration not stated) | 5.63%
41 | Cc1ccc(NC(=O)C(Cc2ccccc2)NS(=O)(=O)c2ccc3c(c2)oc(=O)n3C)cc1F (configuration not stated) | -7.18%
42 | COc1ccc2c(c1)CCc1c-2n[nH]c1C(=O)O | active: 31.4%

Row | Compound | inhibition
43 | Cc1ccc(NC(=O)c2cc3cc(C)ccc3n2C)cc1 | -4.4%
44 | NC(=O)CSc1oc(-c2ccco2)nc1S(=O)(=O)c1ccc(Cl)cc1 | 0.412%
45 | OCCN1CCN(CC/C=C2/c3ccccc3Sc3ccc(C(F)(F)F)cc32)CC1 | active: 82.9%
46 | CCCc1cnc2c(c1SCC(=O)N1CCC(C)CC1)c(=O)n(C)c(=O)n2C | -2.52%
47 | Cc1nn(Cc2ccccc2Cl)c(C)c1NC(=O)c1cc(C(C)C)on1 | -16%
48 | CCC1CCCCN1C(=O)Cn1c(=O)oc2cc(S(=O)(=O)N3CCCCC3)ccc21 (configuration not stated) | 6.35%
49 | CC(C)[C@H](CO)Nc1nc(Nc2ccc(Cl)c(C(=O)O)c2)c2ncn(C(C)C)c2n1 | active: 38.8%
50 | COc1ccc(F)cc1C(=O)C1CCCN(Cc2cn(C)c3ccccc23)C1 (configuration not stated) | active: 78.1%
51 | CCCN1C(=O)c2[nH]nc(-c3ccccc3O)c2C1c1ccc(OCc2ccccc2)c(OC)c1 (configuration not stated) | 6.59%
52 | COC(=O)Cn1nc(C)c2c(C)n(-c3ccccc3)nc2c1=O | -3.57%
53 | COc1cccc2c1cc1c(=O)n(CC(=O)NC3CCCCC3)nc(C)n12 | -9.17%
54 | COc1cc(C(=O)N2CCN(c3ccc(Nc4ccc(C)cc4)nn3)CC2)cc(OC)c1OC | -21.9%
55 | Cc1ccc(C(=O)Nc2cccc(OCc3cc(=O)n4c5c(sc4n3)CCCC5)c2)cc1 | 7.82%
56 | CCCc1cc(=O)oc2c3c(ccc12)OCN(Cc1ccc(OC)cc1)C3 | 11.9%
57 | CCn1c(C(=O)NCc2ccccc2C)cc2oc3ccccc3c21 | -4.69%
58 | COC(=O)c1ccccc1NC(=O)c1ncoc1-c1ccco1 | 6.64%
59 | Cc1ccccc1OCCSc1nc2ccc(NC(=O)c3ccccc3)cc2s1 | -2.07%
60 | CNC(=O)C1CCC(Cn2c(=O)c3sccc3n(Cc3ccc(F)cc3)c2=O)CC1 (configuration not stated) | 6.76%
61 | CC(=O)N1CCCc2cc(S(=O)(=O)N3CCC(C(=O)NC4CCC(C)CC4)CC3)ccc21 (configuration not stated) | 14.2%
62 | CCOc1ccc(C2/C(=C(/O)c3ccc(Cl)cc3)C(=O)C(=O)N2CCCN(C)C)cc1OC (configuration not stated) | active: 45.2%
